PubChem BioAssay AID463173 (ICCB-Longwood Screening Facility, Harvard Medical School, 2010)
Among all 52,000 compounds or so, about 4,300 (8.3%) were called active. Cut-off read from the data, not from the text of the source: active = survival mostly below about 52% (no sharp cut-off); inactive = mostly above about 56%. This is one part of the list.

Tested on: DeltatarO mutant
Experiment: S. aureus survival, RN4220 and DeltatarO strains – OD600, teichoic acid synthesis inhibitors, primary screen (AID 463173)
Settings: S. aureus RN4220 wild type/DeltatarO growth, OD600, 18 h, hits give low values, screened at 18.75 µg/mL (by protocol)

Row | Structure (SMILES) | survival
1 | Cc1cc(Cl)ccc1OCc1nc(-c2ccc(-n3cccc3)cc2)no1 | inactive: 162%
2 | COC(=O)C1=C(C)OC(N)=C(C#N)C1c1ccco1 (centres undefined) | inactive: 93%
3 | CCCCOC(=O)c1ccc(NC(=O)c2cc3c(=O)n4cccc(C)c4nc3s2)cc1 | inactive: 66%
4 | CCOc1ccc(N2CC(c3nc4ccccc4n3CCCOc3ccccc3)CC2=O)cc1 (centres undefined) | inactive: 51%
5 | Cc1c(C(=O)NCC(c2ccc(Cl)cc2)N2CCOCC2)oc2ccccc12 (centres undefined) | inactive: 72%
6 | CCCNC(=O)CCc1nnc2ccc(N3CCN(c4cccc(OC)c4)CC3)nn12 | inactive: 98%
7 | CCCCN(C)CCNC(=O)c1c2c(nc3ccccc13)C(=O)N(C1CCCCC1)C2 | inactive: 102%
8 | COc1ccccc1N1CCN(C(=O)c2nc(SC)ncc2Cl)CC1 | inactive: 85%
9 | COc1ccc(C)cc1NC(=O)CCS(=O)(=O)c1cc2c3c(c1)CCN3C(=O)CC2 | inactive: 85%
10 | CCOc1ccc(Oc2nc(NCC(C)C)nc(N3CCOCC3)n2)nn1 | inactive: 79%
11 | CC(Oc1ccc(F)cc1)C(=O)N1CCC(c2nc3ccccc3s2)CC1 (centres undefined) | inactive: 58%
12 | N#Cc1c(NC(=O)COC(=O)c2cccs2)sc2c1CCC2 | inactive: 94%
13 | Cn1ncc2c(N3CCN(c4cccc(Cl)c4)CC3)ncnc21 | inactive: 73%
14 | CCOC(=O)N1CCc2c(sc(NCc3sccc3C)c2C(=O)Nc2ccc(OC)cc2OC)C1 | inactive: 94%
15 | Cc1cc(C)cc(NC(=O)C(Cc2ccccc2)NS(=O)(=O)c2ccc3c(c2)c(=O)n(C)c(=O)n3C)c1 (centres undefined) | inactive: 57%
16 | O=C(Cn1c(=O)nc(-c2ccccc2)c2ccccc21)NCc1ccc(Cl)cc1 | inactive: 90%
17 | CCc1ccc(NC(=O)CCn2nc(C)c(S(=O)(=O)N3CCCCC3)c2C)cc1 | inactive: 128%
18 | COc1ccc(Cl)cc1C(=O)N1CCCC1 | inactive: 100%
19 | Cc1cc(C)cc(NC(=O)C(=O)NCC(c2cccnc2)N2CCc3ccccc3C2)c1 (centres undefined) | inactive: 73%
20 | CCCCNC(=O)C1CCC(Cn2c(=O)c3sccc3n(CC(=O)N3CCCC3)c2=O)CC1 (centres undefined) | inactive: 112%
21 | NS(=O)(=O)c1ccc(NC(=O)C2CCCO2)cc1 (centres undefined) | inactive: 95%
22 | CCN1CCN(C(=O)c2ccc(S(=O)(=O)N(CC)CC)cc2)CC1 | inactive: 85%
23 | O=C(Nc1cc(C(F)(F)F)ccc1Cl)c1nc2ccccc2nc1N1CCCCC1 | inactive: 85%

Row | Structure (SMILES) | survival
24 | CCc1ccccc1NC(=O)c1sc2nc3c(cc2c1N)CN(Cc1ccccc1)CC3 | inactive: 71%
25 | CCOC(=O)c1c(C)oc2nc(C)nc(NCc3ccc(OC)cc3OC)c12 | inactive: 97%
26 | O=C(CSc1nncn2c1cc1sccc12)Nc1ccc(Br)cc1F | inactive: 61%
27 | COC(=O)c1cccnc1-n1c(=O)c2cccnc2n(CC(=O)Nc2ccccc2F)c1=O | inactive: 86%
28 | Nc1ccc(N2CCN(c3ncc(C(F)(F)F)cc3Cl)CC2)c(C(F)(F)F)c1 | active: -5%
29 | O=C(NCc1ccc(Cl)cc1)C(=O)NCC(c1cccs1)S(=O)(=O)c1cccs1 (centres undefined) | inactive: 90%
30 | CCN(CC)C(=O)CSc1nc(-c2ccco2)cc(C(F)(F)F)c1C#N | inactive: 76%
31 | O=C(C1CCCCC1)N(Cc1nc2sc3c(c2c(=O)[nH]1)CCCC3)Cc1cccs1 | inactive: 66%
32 | CCOc1ccccc1NC(=O)C1CCN(S(=O)(=O)c2ccc3c(c2)CC(C)N3C(C)=O)CC1 (centres undefined) | inactive: 88%
33 | CCOc1ccc(Cn2c(CNS(=O)(=O)c3ccc(Cl)s3)nc3cccnc32)cc1 | inactive: 102%
34 | COc1cccc(N2CCN(S(=O)(=O)c3ccc(-n4cnnn4)cc3)CC2)c1 | inactive: 115%
35 | COc1ccc2c(C)cc(SCC(=O)Nc3nsc(-c4ccccc4C)n3)nc2c1 | active: 35%
36 | CCOC(=O)c1ccccc1NC(=O)Cn1c(=O)n(-c2cccc(C)c2)c(=O)c2c1c1cc(C)ccc1n2C | inactive: 68%
37 | O=C(NCC(c1ccc2c(c1)OCO2)N1CCOCC1)c1cccc(Cl)c1 (centres undefined) | inactive: 84%
38 | COc1cc(C2C(C(=O)Nc3ccccc3C)=C(C)Nc3ncnn32)ccc1OCC(N)=O (centres undefined) | inactive: 82%
39 | CC(C)(C#N)Nn1cnnc1 | inactive: 101%
40 | COc1ccc(-n2ncc(C(=O)NCCc3ccsc3)c2C2CCN(C(=O)OC(C)(C)C)CC2)cc1 | inactive: 75%
41 | COc1ccccc1C(=O)Nc1ccc(N2CCN(S(C)(=O)=O)CC2)cc1 | inactive: 72%
42 | Cc1ccc(Cn2c(CNS(=O)(=O)c3ccc(F)c(Cl)c3)nc3cccnc32)cc1 | inactive: 126%
43 | OCc1nc2ccc(-c3ccc4nc(CO)[nH]c4c3)cc2[nH]1 | inactive: 51%
44 | CC(C)(C)C(=O)NC1CCN(C(=O)NCc2ccccc2)CC1 | inactive: 94%
45 | Cc1cc(NC(=O)c2cccc(Cl)c2)ccc1-c1cc2ccccc2oc1=O | inactive: 73%
46 | Cc1noc(-c2ccc(N3CCCCC3)c([N+](=O)[O-])c2)n1 | inactive: 57%

Row | Structure (SMILES) | survival
47 | Cc1ccccc1CCNC(=O)c1ccc2c(c1)nc1n2CCC(C)C1 (centres undefined) | inactive: 83%
48 | COc1ccccc1C1Nc2ccccc2-n2c(-c3ccccc3)c3c(=O)n(C)c(=O)n(C)c3c21 (centres undefined) | inactive: 53%
49 | Cc1ccc(NC(=O)CSc2ccc(-c3cccs3)nn2)cc1Cl | inactive: 111%
50 | CN(c1ccccc1)S(=O)(=O)c1ccc(NC(=O)c2cc(=O)c3ccccc3o2)cc1 | inactive: 57%
51 | N#CSc1cnc(NC2CCCCC2)s1 | active: 1%
52 | COCC(=O)NCc1nc2cccnc2n1Cc1ccc(F)cc1 | inactive: 60%
53 | COc1ccc(Nc2cc(C(=O)NCCCN3CCN(c4ccc(OC)cc4)CC3)c3ccccc3n2)cc1 | inactive: 73%
54 | COCc1cc(C)nc(SCC(N)=O)c1C#N | inactive: 96%
55 | Cc1oc(C)c2c(=O)cc(-c3ccc4c(c3)OCO4)cc(OC(=O)c3cccc(Br)c3)c12 | inactive: 112%
56 | Cc1ccc(OC(=O)CSc2nnc(-c3ccco3)n2-c2ccccc2)cc1 | inactive: 52%
57 | Cc1cc(C)n(CCc2nc3c4ccccc4nc(N4CCN(c5ccccc5)CC4)n3n2)n1 | inactive: 76%
58 | CC(=O)NC1(c2ccccc2)CCN(CC(=O)Nc2c(C)n[nH]c2C)CC1 | inactive: 95%
59 | NC(=O)c1sc2nc3c(cc2c1N)CCCCC3 | inactive: 71%
60 | COc1cccc(CNC(=O)C2CCCCN2S(=O)(=O)c2ccc(F)cc2)c1 (centres undefined) | inactive: 49%
61 | COc1ccc(-c2noc(-c3ccc(N4CCN(c5ccccc5)CC4)c([N+](=O)[O-])c3)n2)cc1OC | inactive: 61%
62 | CCOC(=O)C1(C)C=C(Nc2cccc(C(=O)O)c2)C(=O)N1c1cccc(C(=O)O)c1 (centres undefined) | inactive: 78%
63 | CCOC(=O)c1sc2sc(C(=O)OCC)c(CN(CC)CC)c2c1CN(CC)CC | inactive: 105%
64 | CCCCc1nn2c(=O)cc(COC(=O)c3ccc(NC(=O)c4ccccc4C)cc3)nc2s1 | inactive: 86%
65 | Cc1ccc(CNS(=O)(=O)c2ccc3[nH]c4c(c3c2)CCCC4)cc1 | inactive: 84%
66 | Cc1cc(F)ccc1NS(=O)(=O)c1ccc(-n2cccn2)cc1 | inactive: 88%
67 | O=C1CS(=O)(=O)C2(C(=O)N(Cc3ccccc3)c3ccccc32)N1c1ccccc1 (centres undefined) | inactive: 113%
68 | COc1ccc(OC)c(CNC(=O)Cc2ccc(NC(=O)N3CCSc4ncccc43)cc2)c1 | inactive: 72%
69 | O=C(C1CCN(c2ncnc3c2nc2n3CCCCC2)CC1)N1CCN(c2cccc(Cl)c2)CC1 | inactive: 64%

Row | Structure (SMILES) | survival
70 | Cc1ccc(CCNC(=O)c2ccc3c(c2)nc2n3CCC(C)C2)cc1 (centres undefined) | inactive: 76%
71 | COc1cc2c(cc1OC)C(COc1ccccc1OC)N(C(=O)COc1ccc(Cl)cc1)CC2 (centres undefined) | active: 47%
72 | COc1cc2c(cc1OC)C(COc1ccc3c(C)cc(=O)oc3c1)N(C(=O)c1cccc(C)c1)CC2 (centres undefined) | inactive: 61%
73 | Cn1c(=O)c(=O)n(C)c2cc(S(=O)(=O)N3CCCC3C(=O)Nc3ccccc3F)ccc21 (centres undefined) | inactive: 92%
74 | O=C(NCCc1ccccc1)c1ccc2c(c1)N(Cc1c(F)cccc1Cl)C(=O)CS2 | inactive: 54%
75 | COc1ccc(NC(=O)CSc2nncn3c2cc2oc(C)cc23)cc1OC | inactive: 109%
76 | Cc1ccc(N(CC(=O)Nc2cccc(F)c2)S(=O)(=O)c2cccs2)cc1 | inactive: 75%
77 | N#CC(C#N)=C(N)/C(C#N)=C\c1ccc(-c2ccccc2)o1 | inactive: 80%
78 | Cc1ccc(N(CC(=O)N2CCN(c3ccccc3F)CC2)S(=O)(=O)c2c(C)noc2C)cc1 | inactive: 92%
79 | CCOC(=O)CSc1ccc2nnc(CCNS(=O)(=O)c3ccccc3)n2n1 | inactive: 63%
80 | Cc1ccc(CCNC(=O)C(NS(=O)(=O)c2ccc3c(c2)oc(=O)n3C)C(C)C)cc1 (centres undefined) | inactive: 88%
81 | COc1cc2c(cc1OC)C(c1ccc(F)cc1)N(c1cccc(C#N)c1)C(=O)C2 (centres undefined) | inactive: 66%
82 | O=C(NC1CCCCC1)C(c1cccs1)N(Cc1cccs1)C(=O)c1cccs1 (centres undefined) | inactive: 88%
83 | O=C(Nc1cccc(C(=O)OCc2cc(=O)n3nc(C4CC4)sc3n2)c1)c1cccc(F)c1 | inactive: 88%
84 | COC(=O)c1ccccc1NC(=O)c1ncoc1-c1ccco1 | inactive: 62%
85 | CCn1c(C(=O)NCc2ccccc2C)cc2oc3ccccc3c21 | active: 14%
86 | OC1CCN(c2cc(-c3ccccc3)nc3cc(-c4cccc(Cl)c4)nn23)CC1 | inactive: 95%
87 | Cc1ccccc1OCCSc1nc2ccc(NC(=O)c3ccccc3)cc2s1 | inactive: 57%
88 | Cc1nc(-c2cccc(NC(=O)Nc3ccc([N+](=O)[O-])cc3)c2)no1 | inactive: 108%
89 | CNC(=O)C1CCC(Cn2c(=O)c3sccc3n(Cc3ccc(F)cc3)c2=O)CC1 (centres undefined) | inactive: 79%
